In article PMC4336329 (PLoS ONE, 2015):
Hit rate of the full screen: of about 310,000 compounds, about 2,200 (0.71%) showed an effect of 50% or more. Effects have a minus sign here. The list shows a part of the results.

What follows are compounds tested against human ether-à-go-go-related gene (hERG) potassium channel (human, UniProt Q12809) (assay: primary screen, population patch clamp on CHO cells stably expressing hERG).
Chain of human ether-à-go-go-related gene (hERG) potassium channel (Q12809 whole entry, looked up): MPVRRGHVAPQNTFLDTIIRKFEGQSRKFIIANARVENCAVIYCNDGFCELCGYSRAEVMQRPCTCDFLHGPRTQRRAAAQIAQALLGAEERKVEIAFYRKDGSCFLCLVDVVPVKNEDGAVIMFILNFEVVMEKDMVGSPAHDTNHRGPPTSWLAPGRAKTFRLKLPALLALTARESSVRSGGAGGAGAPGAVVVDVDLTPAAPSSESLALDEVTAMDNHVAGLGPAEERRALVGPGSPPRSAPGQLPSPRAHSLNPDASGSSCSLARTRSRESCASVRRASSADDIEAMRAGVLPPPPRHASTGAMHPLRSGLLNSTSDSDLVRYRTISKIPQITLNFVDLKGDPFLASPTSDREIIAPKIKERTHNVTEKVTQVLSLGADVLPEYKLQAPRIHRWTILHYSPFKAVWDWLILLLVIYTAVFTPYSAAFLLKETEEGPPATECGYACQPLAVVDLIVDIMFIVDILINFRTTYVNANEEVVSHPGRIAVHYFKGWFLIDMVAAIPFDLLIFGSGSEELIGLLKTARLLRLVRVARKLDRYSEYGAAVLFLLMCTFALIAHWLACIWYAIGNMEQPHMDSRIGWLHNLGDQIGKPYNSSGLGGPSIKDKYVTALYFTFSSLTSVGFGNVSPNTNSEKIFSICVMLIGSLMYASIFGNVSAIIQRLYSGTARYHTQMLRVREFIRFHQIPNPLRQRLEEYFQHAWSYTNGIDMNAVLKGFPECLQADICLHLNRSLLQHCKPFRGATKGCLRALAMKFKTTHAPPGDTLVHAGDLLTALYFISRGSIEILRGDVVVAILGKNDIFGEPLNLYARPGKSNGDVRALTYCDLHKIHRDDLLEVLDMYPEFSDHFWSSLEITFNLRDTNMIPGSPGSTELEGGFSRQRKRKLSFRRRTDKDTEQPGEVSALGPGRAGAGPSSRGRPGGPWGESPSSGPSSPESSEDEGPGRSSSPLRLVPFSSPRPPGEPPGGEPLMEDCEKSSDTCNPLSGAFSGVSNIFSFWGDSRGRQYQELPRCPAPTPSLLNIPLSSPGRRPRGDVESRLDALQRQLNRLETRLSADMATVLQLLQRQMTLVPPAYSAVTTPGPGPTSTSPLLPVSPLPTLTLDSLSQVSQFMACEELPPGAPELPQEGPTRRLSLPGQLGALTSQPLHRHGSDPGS

Row | SMILES | hERG current change (%, negative = inhibition) at 1uM [%]
1 | COc1ccc(N=Nc2cc(C)c(O)c(CN3CCCCC3)c2)cc1 | 7.96
2 | CCC(=O)Nc1ncc2c(n1)CC(c1ccco1)CC2=O (stereo not shown) | 12
3 | CC(=O)Nc1ccc(OCC(=O)N(CC(C)C)C2CCS(=O)(=O)C2)cc1 (stereo not shown) | 14.2
4 | COc1ccccc1CNC(=O)COC(=O)c1cccc(-n2cnnn2)c1 | 5.94
5 | COC(=O)c1ccc(/C=N/NC(=S)NCCN2CCOCC2)cc1 | 8.48
6 | Cc1ccc(N2C(=S)N=C(Nc3ccccc3C)C23CCOC(C)(C)C3)cc1 (stereo not shown) | -1.2
7 | CC12CN3CC(C)(CN(C1)C3c1ccc(Br)cc1)C2=O (stereo not shown) | 4.26
8 | CCCCn1c(N)c(N(CCOC)C(=O)COc2ccc(C(C)=O)cc2)c(=O)[nH]c1=O | 13.2
9 | CC1O[C@@H](OCC2O[C@@H](Oc3cc(O)c4c(c3)OC(c3ccc(O)cc3)CC4=O)[C@H](O)[C@@H](O)[C@@H]2O)[C@H](O)[C@H](O)[C@H]1O (stereo partly shown) | 14
10 | O=C1CC(c2ccccc2)CC(O)=C1C=NCCN1CCN(Cc2ccccc2)CC1 (stereo not shown) | -23.9
11 | Fc1ccc(-c2nc3c(Cl)cc(C(F)(F)F)cn3c2Cl)cc1 | 9.37
12 | CCOC(=O)c1cc2c(ccn2C)n1Cc1cc(C)ccc1C | 17.6
13 | CCC(C(=O)Nc1ccccn1)c1ccccc1 (stereo not shown) | 9.19
14 | CSc1ccc(C(=O)C2CCCN(C(=O)c3nonc3C)C2)cc1 (stereo not shown) | 7.67
15 | CCOc1ccc(N(CC(=O)Nc2cc(OC)cc(OC)c2)S(=O)(=O)c2c(C)[nH]c(=O)[nH]c2=O)cc1 | 11.7
16 | CC(=O)n1cc(CO)c2ccccc21 | 11.6
17 | O=C(NCc1cccnc1)c1nc(-c2ccc(C(F)(F)F)cc2)no1 | -16.6
18 | CSc1cccc(NC(=S)N2CCCN(Cc3cccc(Cl)c3)C2)c1 | 22.7
19 | O=C1C=C(c2ccc3cc[nH]c3c2)C[C@@H](c2ccc3c(c2)OCO3)C1 | 9.5
20 | COc1ccc(-c2cc3ccc(O)cc3oc2=O)cc1 | 2.61
21 | O=C1C2CCCN2C(=O)N1CCCCN1CCN(CCO)CC1 (stereo not shown) | -12.1
22 | Cc1[nH]c2ccc(C(=O)NCCCN3CCCCC3)cc2c1C | 3.44

Row | SMILES | hERG current change (%, negative = inhibition) at 1uM [%]
23 | CCOC(=O)CSc1nnc(CNC(=O)Cc2ccccc2)n1-c1ccccc1OC | 5.54
24 | CC(/C=N/NC(=O)c1ccc(CN2c3cccc4cccc(c34)S2(=O)=O)cc1)c1ccccc1 (stereo not shown) | 9.2
25 | CC(=O)Nc1ccc2c(c1)OCCO2 | -0.0997
26 | CCNC(=O)CN(c1ccc(F)cc1)S(=O)(=O)c1ccc2c(c1)OCCO2 | 6.36
27 | CC(=O)C1=C(C)Nc2ncnn2C1c1ccccc1 (stereo not shown) | 13.4
28 | Cc1ccsc1/C=N/n1c(-c2cccnc2)n[nH]c1=S | 20
29 | CCC(CCC(=O)NNC(=O)Cc1ccc([N+](=O)[O-])cc1)C(=O)O (stereo not shown) | 9.58
30 | CCOC(=O)c1c(-c2ccccc2)oc2ccc(O)c(CN3CCCC3)c12 | -6.32
31 | CCN1CCN(c2ccc(S(=O)(=O)N3CCCCC3)cc2NC(=O)c2cccc(Cl)c2)CC1 | 5.69
32 | CC1(C)CC(NCc2cccc([N+](=O)[O-])c2)CC(C)(C)N1.Cl | 16.9
33 | Cc1cnc([N+](=O)[O-])n1CCOC(=O)NC(=O)c1cccc(F)c1 | 5.52
34 | O=C(c1cc([N+](=O)[O-])ccc1N1CCOCC1)N1CCOCC1 | 12.4
35 | CCOC(=O)c1ccc(CNC(=O)Cn2nnc(-c3ccc(C)cc3)n2)o1 | 3.5
36 | CC(C)OC(=O)C1C2C=CC3(CN(Cc4cccs4)C(=O)C13)O2 (stereo not shown) | 15.8
37 | CCOC(=O)C1C(=O)NC(N2CCCCC2)=NC1C(C)C (stereo not shown) | 2.34
38 | COc1ccccc1/C=C/C(=O)NCc1cccnc1 | 8.76
39 | O=S1(=O)[C@H]2C[C@@H]3C=C[C@@]2(CN1Cc1ccc(Cl)cc1)O3 | -0.0312
40 | COc1cc(/C=N/NC(=O)CSc2ccccn2)ccc1O | 6.45
41 | Cn1c(SCc2ccccc2)nnc1-c1ccc2c(c1)OCO2 | -1.22
42 | Cc1cc(CN(C)C(=O)CC2C(=O)NCCN2Cc2ccc(-c3ccccc3)cc2)on1 (stereo not shown) | 16
43 | C=CCOc1ccc(NC(=O)C2CC(=O)N(C(C)C)C2)cc1 (stereo not shown) | 15.2
44 | Cc1cc(C(=O)OCC(=O)NC2CC2)ccc1[N+](=O)[O-] | -3.4

Row | SMILES | hERG current change (%, negative = inhibition) at 1uM [%]
45 | Cn1c(=O)n(Cc2ccccc2)c(=O)c2c1nc1n2CCN1Cc1ccco1 | 6.89
46 | CN(C)c1nc(N(C)C)nc(N(C#N)CN2C(=O)c3ccccc3C2=O)n1 | 1.6
47 | COc1cc(OC)c(NC(=O)CCNS(=O)(=O)c2ccc3c(c2)oc(=O)n3C)cc1Cl | 11.5
48 | COC(=O)C1CCN(S(=O)(=O)c2c(C)n(C)c(=O)n(C)c2=O)CC1 | 3.6
49 | COc1ccc(N2CCN(S(=O)(=O)CCNS(=O)(=O)c3ccccc3)CC2)cc1 | 8.06
50 | COc1ccc(-c2ccnc(SCC(=O)c3ccc(OC)c(OC)c3)n2)cc1 | 9.11
51 | O=C(NCCc1ccccc1)C1CCN(S(=O)(=O)N2CCCCCC2)CC1 | 3.39
52 | N#CCC(=O)Nc1ccc(C(=O)OCC(=O)c2ccc3c(c2)OCO3)cc1 | 9.98
53 | O=c1cc(C(F)(F)F)nc(-c2ccccc2)[nH]1 | 11
54 | CCc1cccc(N=c2c([N+](=O)[O-])nn(-c3ccc4c(c3)OCCO4)n2O)c1 | 7.25
55 | CN(C(=O)c1cc2c(s1)-c1ccccc1S(=O)(=O)C2)c1ccccc1F | 8.83
56 | COc1ccc(-n2ncc3c2CC(C)(C)CC3NC(=O)CCN2CCCCC2=O)cc1 (stereo not shown) | 9.2
57 | COc1ccc(N2C(=O)CC(N3CCCCC3)C2=O)cc1 (stereo not shown) | 11.9
58 | CCOC(=O)n1c(=O)n(Cc2ccc(Cl)cc2Cl)c2ccccc21 | 7.77
59 | Cn1cc(CN(CCCN2CCOCC2)C(=S)Nc2cccc(Cl)c2)c2ccccc21 | -11.4
60 | O=c1cnnc(Nc2ccccc2)[nH]1 | 14.6
61 | O=C(NC(=O)c1cccc(OC(F)(F)C(F)F)c1)OC1CCS(=O)(=O)C1 (stereo not shown) | -3.81
62 | CCOc1cccc(C(=O)Nc2cccc(C(C)=O)c2)c1 | 14.3
63 | Cc1c(NC(=O)c2c([N+](=O)[O-])cnn2C)c(=O)n(-c2ccccc2)n1C | 4.38
64 | CN(CCc1ccccn1)C(=O)Nc1cccc(Cl)c1 | 7.87
65 | Cc1cccc(NC(=O)C2Cc3ccccc3CN2C(=O)OCc2ccccc2)c1C (stereo not shown) | -9.52
66 | O=C(NCc1ccco1)c1ccc(Cn2c(=O)c3sccc3n(Cc3cccc(F)c3)c2=O)cc1 | 14.9

Row | SMILES | hERG current change (%, negative = inhibition) at 1uM [%]
67 | CCn1c(CNC(=O)Cc2ccc(OC)cc2)n[nH]c1=S | 11.7
68 | COc1cc(NC(=O)CCCNC(=O)c2ccc(Cl)cc2)cc(OC)c1 | 12.3
69 | O=C(NCCCn1ccnc1)C(=O)NCC1OCCN1S(=O)(=O)c1ccc2c(c1)OCCO2 (stereo not shown) | 15.3
70 | COc1cc(NC(=S)NCc2cccnc2)cc(OC)c1 | 15.1
71 | Cc1cc([N+](=O)[O-])ccc1NC(=O)CN1C2CCC1CC(NC(=O)NC13CC4CC(CC(C4)C1)C3)C2 (stereo not shown) | 10.7
72 | Cc1[nH]c(=O)[nH]c(=O)c1/C=N/NC(=O)[C@H](C)N.Cl | 14.2
73 | COc1cc2c(cc1OC)CN(Cc1cc(OC)c(O)c(OC)c1)CC2 | 5.66
74 | CC(CCc1ccc(O)cc1)NCCC(c1ccccc1)c1ccccc1 (stereo not shown) | -84.2
75 | c1ccc(COc2cccc(CN3CCN(c4ccccn4)CC3)c2)cc1 | 16
76 | O=C(CSc1nc2c(cnn2-c2cccc(Cl)c2)c(=O)[nH]1)NCCC1=CCCCC1 | 7.82
77 | Fc1ccc(OCCCCCN2CCCC2)cc1 | 0.577
78 | Cc1ccc(S(=O)(=O)Nc2ccc3c(c2)nc(CCN2CCCCC2)n3C)cc1 | -29.7
79 | CCCn1c(C)cs/c1=N\C(=S)Nc1ccccc1 | 11.5
80 | COc1ccc(Cl)cc1C(=O)NNC(=O)COC(=O)CCN=C1NS(=O)(=O)c2ccccc21 | -0.399
81 | O=C(NNC1CC(=O)N(c2ccc3c(c2)OCCO3)C1=O)c1ccc(Cl)cc1 (stereo not shown) | 10.2
82 | COc1ccc(OC)c(NC(=O)COc2ccc(S(=O)(=O)NC(C)C)cc2)c1 | 1.74
83 | COc1cnn(-c2ccccc2)c(=O)c1SCc1ccc(Cl)c(Cl)c1 | 13.2
84 | Cc1cccc(C)c1N1CCN(c2cc(Cl)nc(N)n2)CC1 | -0.904
85 | O=C(C1CCCN(Cc2nc(-c3ccc(Cl)cc3)no2)C1)N1CCOCC1 (stereo not shown) | 5.15
86 | CC(=O)c1nc2ccccc2n1S(=O)(=O)c1ccc(C)cc1 | 15.8
87 | CCN(CCNC(=O)c1cc(C)nn1-c1ccccc1)c1ccccc1 | 9.65
88 | CCN(CC)C(=O)CSc1nc2ccccc2c(=O)n1-c1ccccc1OC | -3.55
